Test results reported in patent publication US20040259150A1 (Kyowa Kirin, published 2004).
Each block holds one binder with its values, some of them ahead of it.

Target: T1, anti-FGF-8 mouse antibody KM1334
T1 construct: Mouse antibody of hybridoma KM1334 (FERM BP-5451); H chain is of IgG class (cloned with a mouse Cγ1 probe) and L chain of κ class; also called biotinized KM1334
Test: ELISA; KM1334 1 µg/ml on plate, fusion protein added, peroxidase anti-human IgG(γ) detection (FIG. 35)
Method: Binding activities of the FGF-8/Fc fusion protein produced by YB2/0 and the FGF-S/Fc fusion protein produced by CHO described in the item 2 of Example 14, to KM1334 were measured by the ELISA as follows. KM1334 of 1 μg/ml was dispensed at 50 μl/well into a 96-well plate for ELISA (manufactured by Greiner) and allowed to stand at 4° C. overnight for adsorption After washing with PBS, 1% BSA-PBS was added at 100 μl/well and allowed to react at room temperature for 1 hour to block the remaining active group. After washing each well with Tween-PBS, the culture supernatant of the transformant or a purified protein was added at 50 μl/well, followed reaction at room temperature. After the reaction, each well was washed with Tween-PBS, and peroxidase labeled goat-anti-human IgG(γ) antibody solution (manufactured by American Qualex), which was diluted 3000-fold with 1% BSA-PBS, was added at 50 μl/well as the secondary antibody solution, followed by reaction at room temperature for 1 hour. After the reaction, each well was washed with Tween-PBS, and ABTS substrate solution was added at 50 μl/well, followed by reaction. After the color developed sufficiently, 5% SDS solution was added at 50 ed/well to stop the reaction. Then, the absorbance was measured at a wavelength of 415 nm and a reference wavelength of 490.

T1 sequence (VH, as listed by the source limits assumed, chain 1 of 2): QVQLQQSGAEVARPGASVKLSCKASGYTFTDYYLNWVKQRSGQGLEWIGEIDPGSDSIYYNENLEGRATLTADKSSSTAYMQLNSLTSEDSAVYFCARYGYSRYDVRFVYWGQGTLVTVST
T1 sequence (VL, as listed by the source limits assumed, chain 2 of 2): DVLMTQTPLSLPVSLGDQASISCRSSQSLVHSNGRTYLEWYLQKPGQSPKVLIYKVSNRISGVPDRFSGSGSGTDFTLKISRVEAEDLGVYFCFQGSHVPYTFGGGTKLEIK

binding result: binds
B1: FGF-8/Fc fusion protein produced by YB2/0 (Fc fusion)
chain: QVTVQSSPNFTQHVREQSLVTDQLSRRLIRTYQLYSRTSGKHVQVLANKRINAMAEDGDPFAKLIVETDTFGSRVRVRGAETGLYICMNKKGKLIAKSNGKGKDCVFTEIVLENNYTALQNAKYEGWYMAFTRKGRPRKGSKTRQHQREVHFMKRLPRGHHTTEQSLRFEFLNYPPFTRSLRGSQRTWAPEPR[not shown - human IgG1 Fc with E283Q (EU numbers)]
notes: also called FGF-8b/Fc fusion protein; FGF8b-Fc fusion protein

binding result: binds
B2: FGF-8/Fc fusion protein produced by CHO/DG44 cell (Fc fusion)
chain: B1 chain
notes: also called FGF-8/Fc fusion protein derived from CHO; product of transformant KC1179
